In patent CN103012589A (SHANGHAI SERUM BIO TECHNOLOGY CO LTD; INST BIOENGINEERING …, dated 2013):

Target: T1, 重组人VEGF165 (human, UniProt P15692-4 27-191)
T1 construct: also called VEGF双体; 人血管内皮细胞生长因子
T1 sequence: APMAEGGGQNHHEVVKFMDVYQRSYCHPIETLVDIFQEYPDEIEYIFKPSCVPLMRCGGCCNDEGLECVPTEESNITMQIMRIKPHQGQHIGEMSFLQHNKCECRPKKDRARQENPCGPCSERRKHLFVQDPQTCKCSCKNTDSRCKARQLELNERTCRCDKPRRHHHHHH
Test: phage ELISA on coated VEGF after the third round of panning

binding result: binds
B1: 噬菌体单链抗体VA6 (scFv)
scFv: SYELTQPPSVSVAPGQTARITCSGDALGDKYASWYQQKPGQAPVLVIYEDSKRPSGIPERFSGSNSGNTATLTISGTQAEDEADYYCQVKSDNYGYVFGGGTKLTVLGSGGSTITSYNVYYTKLSSSGS[about 100 residues not written out]GWSYNGVDPWGQGTLVTVSS
notes: also called VA6 scFv; 特异性噬菌体抗体VA6
